For 110 molecules, z-score results are on record in PubChem BioAssay AID488969 (Vanderbilt High Throughput Screening Facility, 2010).

The full ranking holds about 110,000 compounds; the median of “z-score” is about -0.1, and the highest 2% start at about 2. The list shows a part of the results.

In the experiment the target is Metabotropic glutamate receptor 8 (Rattus norvegicus) (UniProt P70579). Put plainly: rat mGluR8 modulators via GIRK flux, primary screen, cell-based, thallium flux, HTS (AID 488969). The following applies: HEK293 rat mGluR8, GIRK (G protein-gated inwardly rectifying potassium channel) thallium flux, FluoZin2; at 10 µM; stronger effect = higher value; submaximal glutamate (EC20) added with thallium.
UniProt P70579, sequence (P70579 whole entry, looked up): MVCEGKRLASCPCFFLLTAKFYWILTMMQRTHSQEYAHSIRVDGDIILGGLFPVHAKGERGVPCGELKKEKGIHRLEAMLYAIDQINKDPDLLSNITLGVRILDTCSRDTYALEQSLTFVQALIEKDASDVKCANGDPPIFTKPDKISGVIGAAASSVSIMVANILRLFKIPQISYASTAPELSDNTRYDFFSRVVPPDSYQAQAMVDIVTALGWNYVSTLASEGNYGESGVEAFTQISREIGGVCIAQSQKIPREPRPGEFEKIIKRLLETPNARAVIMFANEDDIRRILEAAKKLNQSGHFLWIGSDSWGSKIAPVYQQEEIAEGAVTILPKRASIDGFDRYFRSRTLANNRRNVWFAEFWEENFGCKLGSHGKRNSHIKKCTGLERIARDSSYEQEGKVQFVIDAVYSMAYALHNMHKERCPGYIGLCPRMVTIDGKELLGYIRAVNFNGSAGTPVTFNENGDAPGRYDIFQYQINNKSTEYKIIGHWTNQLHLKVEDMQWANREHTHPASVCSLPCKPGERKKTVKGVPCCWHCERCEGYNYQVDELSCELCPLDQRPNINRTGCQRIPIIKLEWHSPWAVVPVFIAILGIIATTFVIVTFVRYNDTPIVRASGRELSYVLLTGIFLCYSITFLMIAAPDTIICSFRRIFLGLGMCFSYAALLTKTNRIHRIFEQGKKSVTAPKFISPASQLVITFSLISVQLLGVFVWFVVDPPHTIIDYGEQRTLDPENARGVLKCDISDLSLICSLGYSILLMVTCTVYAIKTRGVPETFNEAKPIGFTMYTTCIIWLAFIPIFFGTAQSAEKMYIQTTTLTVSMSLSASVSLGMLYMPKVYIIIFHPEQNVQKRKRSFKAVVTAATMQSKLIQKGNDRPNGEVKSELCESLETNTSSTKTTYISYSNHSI
In the case of `Cc1nn(-c2ccccc2)c(/N=C/c2ccc(O)cc2)c1-c1ccccc1`, the z-score is -0.0645. On to `CN(C)CCN1C(=O)c2oc3ccccc3c(=O)c2C1c1ccc(F)cc1` (stereo not given), for which the z-score worked out at 1.86. `CCC(C)c1ccccc1NC(=O)CN1CCN(C/C=C/c2ccccc2)CC1` (stereo not given): the z-score worked out at 0.0124.

As to `COC(=O)c1cc(OC)c(OC)c(OC)c1NC(=O)c1ccc(S(=O)(=O)N(C)C)cc1`, the z-score is 0.739.

`CC(C)N=C(NC#N)SCc1ccc(Br)cc1` gave a z-score of -0.212. Molecule `CCCn1c(SCC(=O)c2ccc(OC)c(OC)c2)nc2c1c(=O)n(C)c(=O)n2C` came in with a z-score of -0.237. Then `COc1ccc(N(CC(=O)NC2CCCC2)C(=O)CCC(=O)Nc2cc(C)on2)c(OC)c1`, with 0.201. Take `O=C(O)CCCCc1nc2ccccc2s1`: the z-score came out at 0.604. `Cc1ccc(C)c(NS(=O)(=O)c2cc(Br)cnc2N)c1` returned a z-score of -0.508. Consider `O=C(NNC(=O)c1cccs1)c1ccc(Br)o1`, for which the z-score was -0.207. Then `O=C(/C=C/c1ccc(Br)cc1)N1CCN(c2cccc(C(F)(F)F)c2)CC1`, with -0.0112; and `COc1ccc2cc(CN(CCO)C(=O)c3ccccc3F)c(=O)[nH]c2c1`, with -0.309. In the case of `COC(=O)C1=NN[C@H](C(=O)OC)[C@H]1c1ccccc1` it was -0.246; in that of `O=C(/C=C/c1ccc(Cl)cc1Cl)c1nc2ccccc2[nH]1`, 0.0995; in that of `CC(C)(C)c1ccc(Oc2ccc(N)cc2)cc1`, -0.54.

`CC1(C)CC(=O)C2=C(C1)N=c1s/c(=C/c3ccc(F)c(F)c3)c(=O)n1C2c1ccc(F)cc1` (stereo not given) registered a z-score of -0.188.

In the case of `Cc1cc(NC(=O)COc2ccccc2)n(-c2ccccc2)n1`, the z-score was -0.119. In the case of `Cc1ccc(-n2nnnc2-c2cnoc2-c2cccc(F)c2)cc1` it was 0.0579; in that of `N=C(CC1CC(=O)NC(=O)C1)C1=C(O)CCCC1=O`, 2.31. `CCOc1ccc2nc(SCC(=O)Nc3cc4c(cc3C(C)=O)OCO4)[nH]c2c1` showed a z-score of -0.347.

As to `Nc1nc(NCc2ccccc2)nc(NCc2ccccc2)c1[N+](=O)[O-]`, the z-score was -0.14. On to `Cn1nc(C(=O)Nc2cccc(C(F)(F)F)c2)c2ccccc2c1=O`, for which the z-score is -0.298. In the case of `CCOc1ccc(-n2cc(C(=O)NC(C)C)c3cc(OC)c(OC)cc3c2=O)cc1` it was 0.304. Take `O=Cc1c(-[n+]2ccccc2)nc([O-])n1-c1ccccc1`: the z-score is -0.106. Then `CN1C(=O)c2cccc(NC(=O)C3CCCCC3)c2C1=O`, with -0.37; and `Cc1cc(C)nc(N2CCCC(C(=O)NC3CCCC3)C2)n1` (stereo not given), with -0.0689; and `Cc1ccc(Nc2c([N+](=O)[O-])cc(C(=O)N3CC(=O)Nc4ccccc43)cc2[N+](=O)[O-])c(C)c1`, with -0.162. Molecule `CNC(=O)c1csc(-c2ccncc2)n1` displayed a z-score of 0.0926.

Consider `CCOc1cc(CNCc2ccncc2)cc(Br)c1OCc1ccccc1F`, for which the z-score amounted to 0.172. With `CCN(CC)C(=O)c1c(Cl)nc(C)c([N+](=O)[O-])c1C`, the z-score came out at 0.209. In the case of `Cc1ccc2c(c1)N(CCC(=O)NCc1cccs1)C(=O)C(C)O2` (stereo not given), the z-score came to 1.49. The molecule `Cc1cc(Cl)c(S(=O)(=O)NCCC(=O)O)cc1OCC(N)=O` had a z-score of -0.441. Then `COc1ccc(-c2c(C)[nH]n3c(=O)c(Cc4ccccc4)c(C)nc23)cc1`, with 1.53. Then `COc1ccc(N2C(=O)C3CCCN3C2c2ccc(C)cc2)cc1` (stereo not given), with 0.199. Take `Cc1ccnc(NC(=O)COc2ccc3oc4c(c3c2)CCCC4)c1`: the z-score was -0.134. Consider `CCSC(C)CC1C/C(=N/O)c2c(C)noc2C1` (stereo not given), for which the z-score is 0.244. In the case of `COc1ccc(Cl)cc1-c1n[nH]c(=S)n1C` it was -0.0209; in that of `CNC(=O)COC(=O)c1cccnc1SC`, 0.00689. In the case of `CCCCCCC1C(C#N)=C(N)OC2=C1C(=O)CC(C)(C)C2` (stereo not given) it was -0.0797; in that of `O=C(N/N=C/c1ccccc1)c1sccc1OCc1ccc(F)cc1`, -0.729. Then `C/C(N)=C(/C#N)C(=O)COC(=O)COc1ccc(Cl)cc1C`, with -0.236; and `COc1cc(NC(=O)c2cccs2)c(C(=O)OCC(=O)NC(=O)NC(C)(C)C)cc1OC`, with -0.442; and `CCCN1Cc2cccc(C(=O)NC3CCCC3)c2C1=O`, with -0.618. The molecule `O=C(c1ccco1)N1CCN(C(=O)c2ccc(Cn3cc(Br)cn3)o2)CC1` had a z-score of 0.329.

As to `CCOC(=O)c1c(C)n(OC)c2ccc3c(no[n+]3[O-])c12`, the z-score was -1.05.

With `Cc1cc(-c2csc(NC(=O)c3ccc(S(=O)(=O)N(C)C)cc3)n2)c(C)n1-c1ccccc1`, the z-score was -0.127. Turning to `CCOC(=O)c1cnc2c(c(C)nn2C)c1Oc1ccc(Cl)cc1`, the z-score is -0.527. In the case of `O=c1c2c3c(sc2nc2sc(CN4CCOCC4)cn12)CCCC3` it was 0.00926; in that of `CCc1ccccc1NS(=O)(=O)c1ccc2[nH]cc(C(=O)NCC3CCCO3)c(=O)c2c1` (stereo not given), 0.199. For `CCC(C)c1ccccc1OCCn1ccnc1` (stereo not given), the z-score was -0.166.

`CCCCNC(=O)CN(c1cccc(Br)c1)S(C)(=O)=O` displayed a z-score of -0.415. On to `Cc1ccc(N2CCN(C3=NC(=O)C(Cc4ccccc4)S3)CC2)cc1` (stereo not given), for which the z-score is -0.114. Consider `CC(C)c1ccc(C(=O)CSc2n[nH]c(-c3ccncc3)n2)cc1`, for which the z-score was -0.287. Then `Nc1nnc(SCC(=O)Nc2ccc3c(c2)OCCO3)s1`, with 0.135; and `O=C(Cn1nnc(-c2ccccc2F)n1)Nc1ccc2c(c1)OCO2`, with 2.41; and `CCCCS(=O)(=O)Nc1ccc(C(=O)NCC2CCCO2)cc1` (stereo not given), with 0.2. Then `Cc1c(C(=O)N2CCN(c3ccccc3)CC2)sc2ncnc(N3CCC(C)CC3)c12`, with -0.36.

On to `O=C(CCN1CCN(c2ccccc2F)CC1)Nc1ccccc1F`, for which the z-score was -0.475. `CCOC(=O)Cc1csc(NC(=O)c2ccncc2)n1` yielded a z-score of -0.235. In the case of `COC(=O)Cc1cn(-c2ncc(C(F)(F)F)cc2Cl)c2ccccc12` it was -0.231; in that of `Cc1ccc(-n2c(Cc3cccs3)nnc2SCC(N)=O)cc1`, 0.131; in that of `O=C(NCc1cccs1)C1CCN(S(=O)(=O)c2ccc(Br)s2)CC1`, 0.146. The molecule `CCn1c2ccccc2c2cc(NC(=O)c3cc(OC)c(OC)c(OC)c3)ccc21` yielded a z-score of -0.658.

For `CC1(C)CC(=O)C2=C(C1)N(c1cccnc1)C(N)=C(C#N)C2c1cccs1` (stereo not given), the z-score is -0.634. Then `CN(c1ccc(OCC(=O)Nc2ccc3[nH]c(=O)[nH]c3c2)cc1)S(=O)(=O)c1ccc(Cl)cc1`, with 0.0821.

`Cc1ccc(NC(=O)N/C=C/c2ccc(Cl)cc2)cc1` displayed a z-score of 0.203.

For the molecule `Cc1ccc(C(=O)N/N=C\c2cccn2C)cn1`, the z-score came to 0.0922. With `Cc1oc2c(C)c(O)ccc2c(=O)c1-c1ccc2ccccc2n1`, the z-score is -0.0381. Then `O=C(CCl)Nc1cccn2ncnc12`, with 0.184; and `Cc1ccc(S(=O)(=O)N2CCOCC2)cc1NC(=O)COC(=O)C1COc2ccccc2O1` (stereo not given), with -0.804. Turning to `CCCC(=O)C1CCN(Cc2ccccc2)CC1`, the z-score is -0.0406. Regarding `CC(=O)CSc1nc(C(F)(F)F)cc(=O)n1-c1ccccc1`, the z-score is -0.00409. In turn, `O=c1c2ccccc2nc(SCc2cc(F)cc3c2OCOC3)n1Cc1ccco1` registered a z-score of 0.0405. The molecule `Cc1cc(NS(=O)(=O)c2ccc(NC(=O)Cc3cccs3)cc2)no1` came in with a z-score of -0.115. With `Cc1ccc(C)c(N2CC(=O)N(c3cc(C)ccc3C)CC2=O)c1`, the z-score is -0.264.

`CCCc1cc(=O)oc2cc(Oc3ncccn3)ccc12` had a z-score of -0.455. `Cn1cc(C2CC(c3ccccc3)=NN2C(=O)c2ccccc2)c2ccccc21` (stereo not given) yielded a z-score of -0.0998.

Turning to `Clc1ccc2nc(-c3ccc(Br)s3)cn2c1`, the z-score was 0.066. `CCCOC(=O)c1ccc(NC(=O)c2cc(OC)c(OC)c(OC)c2Br)cc1` yielded a z-score of 0.194. Then `CCCCn1c(N)c(-c2nc3ccccc3o2)c2c([N+](=O)[O-])nn(C)c(=O)c21`, with -0.107; and `C=CCn1c(O)c(C(CC)=Nc2ccccc2NC(=O)CC)c(=O)[nH]c1=O`, with -0.48; and `Cc1ccccc1-n1nc(C(=O)O)cc1-c1ccccc1`, with -2.03. With `Cc1ccccc1-c1noc(N)c1C#N`, the z-score was found to be 0.329.

Turning to `Cc1onc(-c2ccccc2)c1C(=O)Nc1cccc2nsnc12`, the z-score is -0.396.

`COc1ccccc1CNC(=O)C(CCSC)NC(=O)C1CCC(C)CC1` (stereo not given) gave a z-score of -0.988.

Molecule `O=C(O)c1cccc(S(=O)(=O)Nc2ccccc2Cl)c1` showed a z-score of 0.0719. Turning to `CCOc1ccc(-c2nnc(Nc3ccc(OC)c(C(=O)N4CCCCC4)c3)c3ccccc23)cc1`, the z-score is -0.286. Then `CC(C)Nc1nc(NC(C)(C)C)nc(Oc2ccc(=O)n(-c3ccccc3)n2)n1`, with -1.37. Then `CC(C)c1ccc(C(=O)N/N=C/c2cccc(Cl)c2Cl)cc1`, with -0.0927. Then `CC1CC(C)CN(S(=O)(=O)c2ccccc2[N+](=O)[O-])C1` (stereo not given), with -0.156; and `FC(F)(F)c1nnc2ccc(N3CCOCC3)nn12`, with -0.0539. `O=C(NCCNS(=O)(=O)c1ccc(Cl)cc1)c1cc(OCC(F)(F)F)ccc1OCC(F)(F)F` had a z-score of -0.178. In turn, `O=S(=O)(c1ccccc1)N(CC(O)Cn1c2ccccc2c2ccccc21)c1ccccc1` (stereo not given) had a z-score of 0.127.

`O=C(CSc1ncn(-c2ccccc2)n1)Nc1nc(-c2ccccc2)cs1` had a z-score of -0.421.

Take `COCCN1CCc2[nH]c(=S)[nH]c(=O)c2C1`: the z-score is -0.14. In the case of `CN1CCN(CC(=O)N(Cc2c(C#N)c3ccccc3n2C)c2ccccc2)CC1` it was 1.09; in that of `O=C(/C=C/c1ccc(Cl)c([N+](=O)[O-])c1)Nc1cccnc1`, -0.206; in that of `CCN1N=C(c2cc(Cl)sc2Cl)CSC1=O`, 0.341. Turning to `Cc1nc2ccc(Cc3ccc4nc(C)[nH]c4c3)cc2[nH]1`, the z-score is -0.199. Then `CCOc1ccc(-n2c(SCc3ccc([N+](=O)[O-])cc3)nnc2-c2ccc(OC)cc2)cc1`, with -0.658; and `CCNc1nc(NCC)nc(N(n2cnnc2)S(=O)(=O)c2ccc(C)cc2)n1`, with -0.182; and `Cc1cccc(-c2cc3nc4c(c(NCc5ccco5)n3n2)CCCC4)c1`, with 0.515. Then `COc1ccc(CN2c3cc(S(=O)(=O)N4CCOCC4)ccc3N3CCCC32)cc1` (stereo not given), with -0.0468; and `O=C(O)C1CCCCC1C(=O)NCc1ccccc1` (stereo not given), with -0.716. Then `O=C(NNS(=O)(=O)c1ccccc1[N+](=O)[O-])c1ccncc1`, with -0.199.

`CCOC(=O)c1cnn(-c2c(Cc3ccccc3)c(C)nc3c(-c4ccccc4)c(C)nn23)c1N` had a z-score of -0.0157.

`O=C1C(Cl)=C(NCC2CCCO2)C(=O)N1Cc1ccccc1` (stereo not given) gave a z-score of 0.22.

`CCOCCc1nnc(NC(=O)C(CC)c2ccccc2)s1` (stereo not given) yielded a z-score of -0.74. In the case of `CN=C1CC(C)(C)CC(=O)/C1=C(/O)CCC(=O)NC` it was -0.292; in that of `CCOC(=O)N1CCN(c2ncnc3c2[nH]c2ccc(OC)cc23)CC1`, -0.623.
